# In article PMC4985162, “Polarized Exocytosis Induces Compensatory Endocytosis by Sec4p-Regulated Cortical Actin Polymerization” (PLoS Biology, 2016):
# B1: ^35[S]-labeled Las17p-Myc (natural protein)
# chain: not shown
# modifications: ^35S-labeled
# notes: Las17p (Bee1p), yeast Wiskott-Aldrich syndrome protein homologue, S. cerevisiae; In the functional row the Las17p of the test was bacterially expressed GST-Las17p, not this construct; also called ^35S-Las17p; radiolabeled Las17p; source: in vitro translated (TNT T7 Coupled Reticulocyte Lysate System, Promega); not shown: Myc, C-terminal, kept
# Target: T1, glutathione S-transferase (GST)-Sec4p (S. cerevisiae, UniProt P07560 1-215)
# T1 construct: Sec4p, yeast Rab GTPase, S. cerevisiae; Stripped of nucleotide with EDTA, then loaded with 1.5 mM GTPγS or 1.5 mM GDP before the assay; also called GTPγS-GST-Sec4p; GTPγS-Sec4p; source: E. coli BL21(DE3) RIL, purified and immobilized on magnetic glutathione beads; not shown: GST, N-terminal, kept
# T1 sequence (looked up): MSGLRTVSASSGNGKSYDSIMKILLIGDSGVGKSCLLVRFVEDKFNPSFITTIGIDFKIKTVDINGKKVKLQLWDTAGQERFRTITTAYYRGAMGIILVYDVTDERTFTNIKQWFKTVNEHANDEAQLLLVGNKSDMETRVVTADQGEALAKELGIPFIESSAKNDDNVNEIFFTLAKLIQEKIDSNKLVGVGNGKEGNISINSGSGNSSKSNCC
# Assay: pull-down; 1 μg GST fusion immobilized on magnetic glutathione beads, preloaded with 1.5 mM GTPγS; 10 μl in vitro translated ^35S-labeled protein added, 1 h at 23°C; 150 mM Tris pH 7.5, 1.5 mM MgCl2, 250 mM NaCl, 0.5% Triton X-100; SDS-PAGE and autoradiography
# Conditions: one partner purified
binder,measurement,value
B1,fold binding with GTPγS against GDP,2.8 fold
